Source: the supplement of paper PMC12217912
The list shows a part of the results. The full chains were built here from the parent and the listed change. Inactive controls read about 0.05.

B1: TEV protease; numbered along this chain (parent)
chain: MGESLFKGPRDYNPISSSICHLTNESDGHTTSLYGIGFGPFIITNKHLFRRNNGTLVVQSLHGVFKVKDTTTLQQHLVDGRDMIIIRMPKDFPPFPQKLKFREPQREERICLVTTNFQTKSMSSMVSDTSCTFPSGDGIFWKHWIQTKDGQCGSPLVSTRDGFIVGIHSASNFTNTNNYFTSVPKNFMELLTNQEAQQWVSGWRLNADSVLWGGHKVFMVKPEEPFQPVKEATQL

Variants of: B1
Experiment: raw area under fraction-flipped curve 0-4 h after induction (AUC4h, not background-subtracted), DNA-recorder readout of cleavage of the substrate (dimensionless); higher = more cleavage of the substrate by the protease variant
Conditions: temperature: 34 °C; time window: 0-4 h after rhamnose induction
Description: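 In vivo DNA recorder in E. coli TOP10(DE3) ΔrhaA at 34 °C. Each TEVp single-site mutant (parent TEVp 0) is paired with a single-site variant of the 7-mer TEVs (canonical ENLYFQ|S). The substrate sits between flexible linkers in a Bxb1-sfGFP-TEVs-SsrA fusion, so cleavage stabilises Bxb1 and speeds flipping of a recombination array, read by NGS. The value is the raw area under the fraction-flipped curve over 0-4 h after rhamnose induction (AUC4h), with ≥20 reads per time point. It is not background-subtracted; inactive controls average about 0.047.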
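Also: Bxb1 expression induced with 0.2% (w/v) L-rhamnose at OD600 near 0.5, cultures sampled hourly, flipped fraction per protease–substrate barcode pair counted by paired-end Illumina sequencing.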

Variant | area with substrate ENLYDQS | area with substrate ENLYEQS | area with substrate ENLYGQS | area with substrate ENLYHQS | area with substrate ENLYKQS | area with substrate ENLYMQS | area with substrate ENLYPQS | area with substrate ENLYQQS | area with substrate ENLYRQS | area with substrate ENLYVQS
MGESLFKGPRDYNPISSSICHLTNESDGHTTSLYGIGFGPFIITNKHLFRRNNGTLVVQSLHGVFKVKDTTTLQQHLVDGRDMIIIRMPKDFPPFPQKLKFREPQREERICLVTTNFQTKSMSSMVSDTSCTFPSGDGIFWKHWIQTKDGQCGSPLVSTRDGFIVGIHSASNFTNTNNYFTSVPKNFMELLTNQEAIQWVSGWRLNADSVLWGGHKVFMVKPEEPFQPVKEATQL [Q197I] | 0.0676 | 0.0593 | 0.0737 | 0.0681 | 0.0525 | 0.0494 | 0.0866 | 0.054 | 0.0612 | 0.131
MGESLFKGPRDYNPISSSICHLTNESDGHTTSLYGIGFGPFIITNKHLFRRNNGTLVVQSLHGVFKVKDTTTLQQHLVDGRDMIIIRMPKDFPPFPQKLKFREPQREERICLVTTNFQTKSMSSMVSDTSCTFPSGDGIFWKHWIQTKDGQCGSPLVSTRDGFIVGIHSASNFTNTNNYFTSVPKNFMYLLTNQEAQQWVSGWRLNADSVLWGGHKVFMVKPEEPFQPVKEATQL [E189Y] | 0.0515 | 0.0642 |  |  |  | 0.0878 |  | 0.0617 |  | 
MGESLFKGPRDYNPISSSICHLTNESDGHTTSLYGIGFGPFIITNKHLFRRNNGTLVVQSLHGVFKVKDTTTLQQHLVDGRDMIIIRMPKDFPPFPQKLKFREPQREERICLVTTNFQTKSMSSMVSDTSCTFPSGDGIFWKHWIQTKDGQCGSPLVSTRDGFIVGIHSASNFTNTNNYFISVPKNFMELLTNQEAQQWVSGWRLNADSVLWGGHKVFMVKPEEPFQPVKEATQL [T181I] | 0.0678 | 0.0552 |  | 0.0525 | 0.0128 |  |  |  |  | 
MGESLFKGPRDYNPISSSICHLTNESDGHTTSLYGIGFGPFIITNKHLFRRNNGTLVVQSLHGVFKVKDTTTLQQHLVDGRDMIIIRMPKDFPPFPQKLKFREPQREERICLVTTNFQTKSMSSMVSDTSCTFPSGDGIFWKHWIQTKDGQCGSPLVSTRDGFIVGIHSASNFTNTNNYFTSVPKNFMEFLTNQEAQQWVSGWRLNADSVLWGGHKVFMVKPEEPFQPVKEATQL [L190F] | 0.0629 |  |  |  | 0.0406 | 0.0816 |  |  |  | 0.0901
MGESLFKGPRDYNPISSSICHLTNESDGHTTSLYGIGFGPFIITNKHLFRRNNGTLVVQSLHGVFKVKDTTTLQQHLVDGRDMIIIRMPKDFPPFPQKLKFREPQREERICLVTTNFQTKSMSSMVSDTSCTFPSGDGIFWKHWIQTKDGQCGSPLVSTRDGFIVGIHSASNFTNTNNYFTSVPKNFMELLTQQEAQQWVSGWRLNADSVLWGGHKVFMVKPEEPFQPVKEATQL [N193Q] | 0.0513 |  |  | 0.0659 | 0.0521 |  |  |  |  | 
MGESLFKGPRDYNPISSSICHLTNESDGHTTSLYGIGFGPFIITNKHLFRRNNGTLVVQSLHGVFKVKDTTTLQQHLVDGRDMIIIRMPKDFPPFPQKLKFREPQREERICLVTTNFQTKSMSSMVSDTSCTFPSGDGIFWKHWIQTKDGQCGSPLVSTRDGFIVGIHSASNFTNTNNYFTHVPKNFMELLTNQEAQQWVSGWRLNADSVLWGGHKVFMVKPEEPFQPVKEATQL [S182H] | 0.0599 |  | 0.0576 | 0.0507 | 0.0553 | 0.0571 | 0.0615 | 0.0687 | 0.0726 | 
MGESLFKGPRDYNPISSSICHLTNESDGHTTSLYGIGFGPFIITNKHLFRRNNGTLVVQSLHGVFKVKDTTTLQQHLVDGRDMIIIRMPKDFPPFPQKLKFREPQREERICLVTTNFQTKSMSSMVSDTSCTFPSGDGIFWKHWIQTKDGQCGSPLVSTRDGFIVGIHSASNFTNTNNYFTFVPKNFMELLTNQEAQQWVSGWRLNADSVLWGGHKVFMVKPEEPFQPVKEATQL [S182F] | 0.0362 | 0.0547 | 0.077 | 0.0485 | 0.0676 |  | 0.0565 |  |  | 
MGESLFKGPRDYNPISSSICHLTNESDGHTTSLYGIGFGPFIITNKHLFRRNNGTLVVQSLHGVFKVKDTTTLQQHLVDGRDMIIIRMPKDFPPFPQKLKFREPQREERICLVTTNFQTKSMSSMVSDTSCTFPSGDGIFWKHWIQTKDGQCGSPLVSTRDGFIVGIHSASNFTNTNNYFTSVPKNFMELLTNQLAQQWVSGWRLNADSVLWGGHKVFMVKPEEPFQPVKEATQL [E195L] | 0.0695 |  | 0.0473 | 0.0683 |  |  |  |  | 0.0729 | 0.0616
MGESLFKGPRDYNPISSSICHLTNESDGHTTSLYGIGFGPFIITNKHLFRRNNGTLVVQSLHGVFKVKDTTTLQQHLVDGRDMIIIRMPKDFPPFPQKLKFREPQREERICLVTTNFQTKSMSSMVSDTSCTFPSGDGIFWKHWIQTKDGQCGSPLVSTRDGFIVGIHSASNFTNTNNYFTSVPKNFMELLTNQSAQQWVSGWRLNADSVLWGGHKVFMVKPEEPFQPVKEATQL [E195S] | 0.0543 |  | 0.058 | 0.0548 |  | 0.0835 | 0.0418 | 0.0564 |  | 0.133
MGESLFKGPRDYNPISSSICHLTNESDGHTTSLYGIGFGPFIITNKHLFRRNNGTLVVQSLHGVFKVKDTTTLQQHLVDGRDMIIIRMPKDFPPFPQKLKFREPQREERICLVTTNFQTKSMSSMVSDTSCTFPSGDGIFWKHWIQTKDGQCGSPLVSTRDGFIVGIHSASNFTNTNNYFTSVPNNFMELLTNQEAQQWVSGWRLNADSVLWGGHKVFMVKPEEPFQPVKEATQL [K185N] | 0.0902 | 0.0533 | 0.0571 | 0.0625 | 0.0545 |  | 0.0864 | 0.074 | 0.0523 | 

Same assay, conditions: temperature: 34 °C; time window: 0-4 h after rhamnose induction

Variant | area with substrate ENLYIQS | area with substrate ENLYWQS | area with substrate ENLYNQS | area with substrate ENLYLQS | area with substrate ENLYTQS | area with substrate ENLYYQS | area with substrate ENLYSQS
MGESLFKGPRDYNPISSSICHLTNESDGHTTSLYGIGFGPFIITNKHLFRRNNGTLVVQSLHGVFKVKDTTTLQQHLVDGRDMIIIRMPKDFPPFPQKLKFREPQREERICLVTTNFQTKSMSSMVSDTSCTFPSGDGIFWKHWIQTKDGQCGSPLVSTRDGFIVGIHSASNFTNTNNYFISVPKNFMELLTNQEAQQWVSGWRLNADSVLWGGHKVFMVKPEEPFQPVKEATQL [T181I] | 0.112 |  |  |  |  |  | 
MGESLFKGPRDYNPISSSICHLTNESDGHTTSLYGIGFGPFIITNKHLFRRNNGTLVVQSLHGVFKVKDTTTLQQHLVDGRDMIIIRMPKDFPPFPQKLKFREPQREERICLVTTNFQTKSMSSMVSDTSCTFPSGDGIFWKHWIQTKDGQCGSPLVSTRDGFIVGIHSASNFTNTNNYFTSVPKNFMEFLTNQEAQQWVSGWRLNADSVLWGGHKVFMVKPEEPFQPVKEATQL [L190F] |  | 0.0985 |  |  |  |  | 
MGESLFKGPRDYNPISSSICHLTNESDGHTTSLYGIGFGPFIITNKHLFRRNNGTLVVQSLHGVFKVKDTTTLQQHLVDGRDMIIIRMPKDFPPFPQKLKFREPQREERICLVTTNFQTKSMSSMVSDTSCTFPSGDGIFWKHWIQTKDGQCGSPLVSTRDGFIVGIHSASNFTNTNNYFTSVPKNFMELLTQQEAQQWVSGWRLNADSVLWGGHKVFMVKPEEPFQPVKEATQL [N193Q] |  |  | 0.0631 |  |  |  | 
MGESLFKGPRDYNPISSSICHLTNESDGHTTSLYGIGFGPFIITNKHLFRRNNGTLVVQSLHGVFKVKDTTTLQQHLVDGRDMIIIRMPKDFPPFPQKLKFREPQREERICLVTTNFQTKSMSSMVSDTSCTFPSGDGIFWKHWIQTKDGQCGSPLVSTRDGFIVGIHSASNFTNTNNYFTHVPKNFMELLTNQEAQQWVSGWRLNADSVLWGGHKVFMVKPEEPFQPVKEATQL [S182H] | 0.0538 | 0.0738 |  | 0.0736 | 0.0473 | 0.0571 | 
MGESLFKGPRDYNPISSSICHLTNESDGHTTSLYGIGFGPFIITNKHLFRRNNGTLVVQSLHGVFKVKDTTTLQQHLVDGRDMIIIRMPKDFPPFPQKLKFREPQREERICLVTTNFQTKSMSSMVSDTSCTFPSGDGIFWKHWIQTKDGQCGSPLVSTRDGFIVGIHSASNFTNTNNYFTFVPKNFMELLTNQEAQQWVSGWRLNADSVLWGGHKVFMVKPEEPFQPVKEATQL [S182F] | 0.0762 |  |  |  |  | 0.0574 | 0.0475
MGESLFKGPRDYNPISSSICHLTNESDGHTTSLYGIGFGPFIITNKHLFRRNNGTLVVQSLHGVFKVKDTTTLQQHLVDGRDMIIIRMPKDFPPFPQKLKFREPQREERICLVTTNFQTKSMSSMVSDTSCTFPSGDGIFWKHWIQTKDGQCGSPLVSTRDGFIVGIHSASNFTNTNNYFTSVPKNFMELLTNQLAQQWVSGWRLNADSVLWGGHKVFMVKPEEPFQPVKEATQL [E195L] |  | 0.0579 | 0.0767 |  | 0.0742 | 0.0556 | 0.0816
MGESLFKGPRDYNPISSSICHLTNESDGHTTSLYGIGFGPFIITNKHLFRRNNGTLVVQSLHGVFKVKDTTTLQQHLVDGRDMIIIRMPKDFPPFPQKLKFREPQREERICLVTTNFQTKSMSSMVSDTSCTFPSGDGIFWKHWIQTKDGQCGSPLVSTRDGFIVGIHSASNFTNTNNYFTSVPKNFMELLTNQSAQQWVSGWRLNADSVLWGGHKVFMVKPEEPFQPVKEATQL [E195S] |  | 0.0933 | 0.0747 |  |  | 0.0752 | 
MGESLFKGPRDYNPISSSICHLTNESDGHTTSLYGIGFGPFIITNKHLFRRNNGTLVVQSLHGVFKVKDTTTLQQHLVDGRDMIIIRMPKDFPPFPQKLKFREPQREERICLVTTNFQTKSMSSMVSDTSCTFPSGDGIFWKHWIQTKDGQCGSPLVSTRDGFIVGIHSASNFTNTNNYFTSVPNNFMELLTNQEAQQWVSGWRLNADSVLWGGHKVFMVKPEEPFQPVKEATQL [K185N] | 0.132 | 0.117 | 0.0569 |  |  | 0.0809 | 
